As a reminder, the Kd is the concentration at which binding is half-saturated. Read a high Kd as weaker binding. The term koff denotes the first-order rate constant of dissociation. The low end stands for a long-lived complex, the high end for a short-lived complex. A word on the kon: it is the second-order rate constant of association. Lower therefore signals slow association. In general, IC50 refers to the concentration that gives 50% inhibition. The EC50 is the concentration that produces a half-maximal response. A low value points to higher potency in that assay.

10 molecules from patent US20250250344A1 (KEXING BIOPHARM, published 2025) can be followed below.

Some results are limits rather than exact numbers.

To fix the notation:
B1: GB10-04 tetravalent bispecific inhibitor (bispecific antibody)
chain: SDTGRPFVEMYSEIPEIIHMTEGRELVIPCRVTSPNITVTLKKFPLDTLIPDGKRIIWDSRKGFIISNATYKEIGLLTCEATVNGHLYKTNYLTHRQTNTIIDVVLSPSHGIELSVGEKLVLNCTARTELNVGIDFNWEYPSSKHQHKKLVNRDLKTQSGSEMKKFLSTLTIDGVTRSDQGLYTCAASSGLMTKKNSTFVRVHEK[human IgG1 Fc left out]GGGSGGGGSGGGGSGGGGSQLQLVESGGGLVQPGGSLRLSCAASGFTLGYYSIGWFRQAPGKEREGVSCISRTDGSTYYADSVKGRFTISRDNAKNTVYLQMNNLKPEDTAVYYCAVKGARYSGSYLCGLDEYDYWGQGTQVTVSS
notes: expressed in HEK 293 cells; also called GB10-04 antibody
B2: GB10-03 tetravalent bispecific inhibitor (bispecific antibody)
chain: SDTGRPFVEMYSEIPEIIHMTEGRELVIPCRVTSPNITVTLKKFPLDTLIPDGKRIIWDSRKGFIISNATYKEIGLLTCEATVNGHLYKTNYLTHRQTNTIIDVVLSPSHGIELSVGEKLVLNCTARTELNVGIDFNWEYPSSKHQHKKLVNRDLKTQSGSEMKKFLSTLTIDGVTRSDQGLYTCAASSGLMTKKNSTFVRVHEK[human IgG1 Fc left out]GGGSGGGGSGGGGSGGGGSQLQLVESGGGLVQPGGSLRLSCAASGFTLDYYAIGWFRQVPGKAREGLSCISSGDGSTYYADSVKGRFTISRDNTKNTVYLQMNSLKPEDTAVYSCAAVRSGSKCLVTRGTVVAAGQLYEYWGQGTQVTVSS
notes: expressed in HEK 293 cells; also called GB10-03 antibody
B3: GB10-09 tetravalent bispecific inhibitor (bispecific antibody)
chain: SDTGRPFVEMYSEIPEIIHMTEGRELVIPCRVTSPNITVTLKKFPLDTLIPDGKRIIWDSRKGFIISNATYKEIGLLTCEATVNGHLYKTNYLTHRQTNTIIDVVLSPSHGIELSVGEKLVLNCTARTELNVGIDFNWEYPSSKHQHKKLVNRDLKTQSGSEMKKFLSTLTIDGVTRSDQGLYTCAASSGLMTKKNSTFVRVHEK[human IgG1 Fc left out]GGGSGGGGSGGGGSGGGGSQVQLVESGGGLVQPGGSLRLSCAASGSIFSFSTVRWYRQAPGKQREPVATLLDDGSTNYADSVKGRFTISTDNAKNTVYLQMNSLKPEDTAVYYCNADGRTGWGPRGDYWGRGTQVTVSS
notes: expressed in HEK 293 cells; also called GB10-09 antibody
B4: GB10-14 tetravalent bispecific inhibitor (bispecific antibody)
chain: SDTGRPFVEMYSEIPEIIHMTEGRELVIPCRVTSPNITVTLKKFPLDTLIPDGKRIIWDSRKGFIISNATYKEIGLLTCEATVNGHLYKTNYLTHRQTNTIIDVVLSPSHGIELSVGEKLVLNCTARTELNVGIDFNWEYPSSKHQHKKLVNRDLKTQSGSEMKKFLSTLTIDGVTRSDQGLYTCAASSGLMTKKNSTFVRVHEK[human IgG1 Fc left out]GGGSGGGGSGGGGSGGGGSQVQLVESGGGLVQPGGSLRLSCAASGSSFKFSTVRWYRQAPGKQREPVATHDDGSTNYEDSVKGRFTISRDNAKNTAFLQMNSLKPEDTAVYYCNADGSTGWGPRGDYWGRGTQVTVSS
notes: expressed in HEK 293 cells; also called GB10-14 antibody
B5: GB10-08 tetravalent bispecific inhibitor (bispecific antibody)
chain: SDTGRPFVEMYSEIPEIIHMTEGRELVIPCRVTSPNITVTLKKFPLDTLIPDGKRIIWDSRKGFIISNATYKEIGLLTCEATVNGHLYKTNYLTHRQTNTIIDVVLSPSHGIELSVGEKLVLNCTARTELNVGIDFNWEYPSSKHQHKKLVNRDLKTQSGSEMKKFLSTLTIDGVTRSDQGLYTCAASSGLMTKKNSTFVRVHEK[human IgG1 Fc left out]GGGSGGGGSGGGGSGGGGSQVQLVESGGGLVQPGGSLRLSCAASGFSFSSATMSWHRQTPGKERTMVALIAYAGGSTTYADSVKGRFTISRDNAKNTVYLQMSNLKPEDTAVYYCNTRRYNRDFWGQGTQVTVSS
notes: expressed in HEK 293 cells; also called GB10-08 antibody
B6: VHH2-09 antibody (Fc fusion)
heavy: QVQLVESGGGLVQPGGSLRLSCAASGSIFSFSTVRWYRQAPGKQREPVATLLDDGSTNYADSVKGRFTISTDNAKNTVYLQMNSLKPEDTAVYYCNADGRTGWGPRGDYWGRGTQVTVSS[human IgG1 Fc with changes left out]
notes: Single-domain antibody variable region fused to human IgG1 Fc, expressed in CHO cells, purified on Protein A; also called ANG-2 single-domain antibody VHH2-09
B7: VHH-04 antibody (Fc fusion)
heavy: QLQLVESGGGLVQPGGSLRLSCAASGFTLGYYSIGWFRQAPGKEREGVSCISRTDGSTYYADSVKGRFTISRDNAKNTVYLQMNNLKPEDTAVYYCAVKGARYSGSYLCGLDEYDYWGQGTQVTVSS[human IgG1 Fc with changes left out]
notes: Single-domain antibody variable region fused to human IgG1 Fc, expressed in CHO cells, purified on Protein A; also called ANG-2 single-domain antibody VHH-04
B8: VHH-08 antibody (Fc fusion)
heavy: QVQLVESGGGLVQPGGSLRLSCAASGFSFSSATMSWHRQTPGKERTMVALIAYAGGSTTYADSVKGRFTISRDNAKNTVYLQMSNLKPEDTAVYYCNTRRYNRDFWGQGTQVTVSS[human IgG1 Fc with changes left out]
notes: Single-domain antibody variable region fused to human IgG1 Fc, expressed in CHO cells, purified on Protein A; also called ANG-2 single-domain antibody VHH-08
B9: VHH2-03 antibody (Fc fusion)
heavy: QLQLVESGGGLVQPGGSLRLSCAASGFTLDYYAIGWFRQVPGKAREGLSCISSGDGSTYYADSVKGRFTISRDNTKNTVYLQMNSLKPEDTAVYSCAAVRSGSKCLVTRGTVVAAGQLYEYWGQGTQVTVSS[human IgG1 Fc with changes left out]
notes: Single-domain antibody variable region fused to human IgG1 Fc, expressed in CHO cells, purified on Protein A; also called ANG-2 single-domain antibody VHH2-03
B10: VHH2-14 antibody (Fc fusion)
heavy: QVQLVESGGGLVQPGGSLRLSCAASGSSFKFSTVRWYRQAPGKQREPVATHDDGSTNYEDSVKGRFTISRDNAKNTAFLQMNSLKPEDTAVYYCNADGSTGWGPRGDYWGRGTQVTVSS[human IgG1 Fc with changes left out]
notes: Single-domain antibody variable region fused to human IgG1 Fc, expressed in CHO cells, purified on Protein A; also called ANG-2 single-domain antibody VHH2-14

One experiment concerns the target T1, VEGF165 (Novoprotein, C083) (UniProt P15692-4 27-191).
T1 sequence (looked up): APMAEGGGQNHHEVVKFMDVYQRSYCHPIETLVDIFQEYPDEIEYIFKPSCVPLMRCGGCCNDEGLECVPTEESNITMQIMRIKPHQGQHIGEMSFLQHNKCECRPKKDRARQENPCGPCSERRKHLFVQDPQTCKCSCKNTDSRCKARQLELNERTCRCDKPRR
Briefly: cell-based or functional assay.
For B1, the “IC50 Values for HUVEC Proliferation Inhibition (CellTiter-Glo RLU)” value turned out to be 0.029 nM.

A further experiment concerns the target T2, Human VEGFA165.his (ACRO, VE5-H5248) (human, UniProt P15692-4 27-191).
T2 construct: Bought protein; not shown: His tag ('VEGFA165.his')
T2 sequence (looked up): T1 sequence (looked up)
As to the kind of experiment: BLI, sample captured on ProA sensor, VEGFA165.his in solution. (In BLI a coated tip is dipped into the sample, and binding shifts an interference pattern.)
Consider B2, for which binding was characterised by a dissociation constant (Kd) of 0.884 nM, the koff was found to be 2.24e-05 s⁻¹ and the kon came out at 25400 M⁻¹ s⁻¹.

With B3, the koff came to 0.000388 s⁻¹ and the on-rate constant (kon) is 407000 M⁻¹ s⁻¹.

Molecule B4 displayed a Kd of 0.129 nM, a koff of 1.9e-05 s⁻¹ and an on-rate constant (kon) of 147000 M⁻¹ s⁻¹.

Turning to B5, the Kd came out at 0.492 nM, the koff was 0.000111 s⁻¹ and the kon was 227000 M⁻¹ s⁻¹.

For B1, the Kd was determined as 0.954 nM, the koff amounted to 0.000388 s⁻¹ and the on-rate (kon) is 407000 M⁻¹ s⁻¹.

The target of the next experiment is T3, Human ANG-2 protein (Sino Biological, 10691-H08H) (human, UniProt O15123 19-496).
T3 construct: Bought protein; also called human ANG-2.his; Angiopoietin-2; not shown: His tag ('ANG-2.his')
T3 sequence (looked up): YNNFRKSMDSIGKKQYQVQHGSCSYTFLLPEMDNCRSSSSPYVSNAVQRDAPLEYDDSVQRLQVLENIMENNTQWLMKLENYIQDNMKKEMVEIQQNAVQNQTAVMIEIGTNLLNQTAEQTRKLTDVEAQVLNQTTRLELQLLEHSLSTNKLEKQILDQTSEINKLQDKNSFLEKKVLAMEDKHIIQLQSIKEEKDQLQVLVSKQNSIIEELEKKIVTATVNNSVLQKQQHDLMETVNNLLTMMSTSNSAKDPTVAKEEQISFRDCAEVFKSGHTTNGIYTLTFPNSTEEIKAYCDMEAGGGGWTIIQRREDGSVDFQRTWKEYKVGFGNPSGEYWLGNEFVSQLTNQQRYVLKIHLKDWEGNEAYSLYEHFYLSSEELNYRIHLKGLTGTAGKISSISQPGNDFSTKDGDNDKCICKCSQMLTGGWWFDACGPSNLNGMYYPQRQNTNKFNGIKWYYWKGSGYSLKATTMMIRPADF
Briefly: BLI, ANG-2.his captured on NTA sensor, sample in solution.
On to B2, for which the Kd was below 0.001 nM, the koff was below 1e-07 s⁻¹ and the association rate constant (kon) worked out at 206000 M⁻¹ s⁻¹.

As for B3, the Kd was below 0.001 nM, the off-rate constant (koff) was below 1e-07 s⁻¹ and the kon was found to be 144000 M⁻¹ s⁻¹.

Consider B4, for which the Kd is below 0.001 nM, the koff is below 1e-07 s⁻¹ and the on-rate (kon) stood at 35400 M⁻¹ s⁻¹.

B5 came in with a Kd below 0.001 nM, a dissociation rate constant (koff) below 1e-07 s⁻¹ and a kon of 325000 M⁻¹ s⁻¹.

On to B1, for which the Kd was below 0.001 nM, the koff is below 1e-07 s⁻¹ and the association rate constant (kon) was 1.06e+06 M⁻¹ s⁻¹.

In the next experiment the target is T3, Human ANG-2 protein (Sino Biological, …). As to the kind of experiment: ELISA, human ANG-2 coated; relative to Faricimab = 100%.
For the molecule B6, the Relative activity is 2130%.

For the molecule B7, the Relative activity came to 4250%.

Consider B8, for which the Relative activity turned out to be 4450%.

For the molecule B9, the Relative activity is 1950%.

Regarding B10, the Relative activity was 2880%.

The next experiment has the same target. As to the kind of experiment: competition ELISA, ANG-2 binding to coated TIE2; relative to Faricimab = 100%. A general note: In an ELISA, binding on a coated surface is turned into a signal by an enzyme label.
Regarding B2, the “Relative activity” value was determined as 1530%.

Take B3: the “Relative activity” value stood at 1480%.

Regarding B4, the “Relative activity” value was found to be 2000%.

B5: the “Relative activity” value came to 9780%.

B1: the “Relative activity” value came to 7070%.

Another experiment deals with T1, VEGF165 (Novoprotein, C083). Briefly: cell-based or functional assay. The source holds these as a separate data set.
Take B2: the “IC50 Values for VEGF Reporter Gene Inhibition (H-VEGF Reporter 293 cells, luciferase RLU)” value turned out to be 0.045 nM and the “Relative Activity, VEGF reporter gene inhibition (against Faricimab = 100%)” value worked out at 366%.

Consider B3, for which the “IC50 Values for VEGF Reporter Gene Inhibition (H-VEGF Reporter 293 cells, luciferase RLU)” value amounted to 0.051 nM and the “Relative Activity, VEGF reporter gene inhibition (against Faricimab = 100%)” value turned out to be 322%.

In the case of B4, the “IC50 Values for VEGF Reporter Gene Inhibition (H-VEGF Reporter 293 cells, luciferase RLU)” value stood at 0.045 nM and the “Relative Activity, VEGF reporter gene inhibition (against Faricimab = 100%)” value amounted to 371%.

In the case of B5, the “IC50 Values for VEGF Reporter Gene Inhibition (H-VEGF Reporter 293 cells, luciferase RLU)” value was determined as 0.048 nM and the “Relative Activity, VEGF reporter gene inhibition (against Faricimab = 100%)” value is 347%.

For the molecule B1, the “IC50 Values for VEGF Reporter Gene Inhibition (H-VEGF Reporter 293 cells, luciferase RLU)” value was determined as 0.03 nM and the “Relative Activity, VEGF reporter gene inhibition (against Faricimab = 100%)” value worked out at 557%.

In another experiment the target is T3, Human ANG-2 protein (Sino Biological, …). As to the kind of experiment: competition ELISA, TIE2 coated, ANG-2 (100 ng/mL) plus sample, anti-His-HRP detection.
Consider B2, for which the half-maximal inhibitory concentration (IC50) was 0.518 nM.

In the case of B3, the IC50 is 0.533 nM.

B4: the concentration for half-maximal inhibition (IC50) was found to be 0.396 nM.

On to B5, for which the half-maximal inhibitory concentration (IC50) worked out at 0.081 nM.

Take B1: the IC50 was 0.112 nM.

For a further experiment the target is unchanged. Briefly: ELISA, human ANG-2 coated, anti-human Fc-HRP detection.
On to B6, for which it took 0.088 nM to reach a half-maximal effect (EC50).

With B7, the concentration for a half-maximal effect (EC50) is 0.044 nM.

B8 yielded an EC50 of 0.042 nM.

With B9, the EC50 stood at 0.096 nM.

Turning to B10, the response was half-maximal at 0.065 nM (EC50).
